# PubChem BioAssay AID1347073 (National Center for Advancing Translational Sciences (NCATS), 2019)
# Hit rate of the full screen: of about 45,000 compounds, about 200 (0.44%) were called active. Roughly 7% stayed inconclusive and do not appear here. Calls follow the shape of the dose curve; as a rule, active = well fitted activation curve with a large enough effect; inconclusive = small, poorly fitted or top-dose-only effect; inactive = no such curve, though single readings can be large or run the other way. The list shows a part of the results.
# Assay: qHTS of TDP-43 Inhibitors: NCGC Sytravon Library Screen; also: 0% is about no effect; nearly all actives have a fitted effect of over 55% in size
# Conditions: yeast TDP-43 toxicity rescue, BacTiter-Glo growth, 24 h; series mostly up to 46.1 µM; growth rescue (activation): at the top concentration
# Summary of the method: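 TDP-43-expressing yeast, pregrown in raffinose, seeded at OD600 0.02 in galactose medium with compound for 24 hr at 30 deg C. Growth read by BacTiter-Glo luminescence, so rescue of toxicity appears as activation.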
row,SMILES,growth rescue (activation)
1,O=C(NCc1ccc(F)cc1)C1CCCN(S(=O)(=O)c2ccc(Br)s2)C1 (stereo not given),inactive: 11.8%
2,CN(CC(=O)NC1CCCc2ccccc21)S(=O)(=O)c1cccs1 (stereo not given),inactive: 23.5%
3,O=C1CC(NNc2nc3ccccc3s2)C(=O)N1c1ccc(F)cc1 (stereo not given),inactive: -14.5%
4,COc1ccc(NC(=O)CNC(c2ccccc2)c2ccccc2)cc1Cl,inactive: 9.68%
5,O=C(/C=C/c1cccc(Br)c1)Nc1nn[nH]n1,inactive: 15.1%
6,CCCCC(CC)CNC(=O)C(=O)C1C(=O)Nc2ccccc21 (stereo not given),inactive: -1.89%
7,CCC(=O)N(Cc1cc2c(C)ccc(C)c2[nH]c1=O)C1CCCCC1,inactive: 4.56%
8,Cc1nc(Nc2cccc(O)c2)c2c3c(sc2n1)CCC3,inactive: 26.2%
9,O=C(NCCc1ccccc1)NC(Cc1ccccc1)C(=O)O (stereo not given),inactive: 2.71%
10,CC1CCc2sc(C(=O)OCC(=O)NCc3ccccc3)cc2C1 (stereo not given),inactive: 18.5%
11,C=CCn1c(SCC(=O)NC(=O)c2cccc([N+](=O)[O-])c2)nnc1-c1ccccc1,inactive: -13.2%
12,COc1ccc(C2=NO[C@@H]3[C@@H]4C[C@@H]([C@H]5C(=O)N(C)C(=O)[C@@H]45)[C@H]23)c(OC)c1,inactive: 0.57%
13,Cc1c(NC(=O)[C@@H](NC(=O)c2ccc(Cl)c([N+](=O)[O-])c2)C(C)C)c(=O)n(-c2ccccc2)n1C,inactive: 2.78%
14,Cc1ccc(NC(=O)CN(C)Cc2cccs2)cc1Cl,inactive: -9.03%
15,O=C(COC(=O)c1ccc(O)cc1)Nc1nccs1,inactive: 7.45%
16,Fc1ccc(/C=N/NC(=S)NCCc2ccccc2)cc1F,inactive: 11.8%
17,O=C(Nc1ccc2c(c1)CCC2)c1ncoc1-c1ccccc1F,inactive: -16.9%
18,COc1cc(S(=O)(=O)NC2CC(C)(C)NC(C)(C)C2)c(OC)cc1Cl,inactive: -16%
19,Cc1ccsc1/C=N/NC(=O)c1cccc(S(=O)(=O)Nc2ccccc2Cl)c1,inactive: 5.44%
20,CC(=O)c1cccc(NC(=O)CCNC(=O)c2cccc(C)c2)c1,inactive: 0.249%
21,CC(C(=O)Nc1ccc(Cl)cc1Cl)N1C(=O)NC2(CCCC2)C1=O (stereo not given),inactive: -1.04%
22,Cn1cc(/C=N/NC(N)=S)c2ccccc21,inactive: 20.2%
23,CC(C)c1nc2cc(Cl)ccc2n(Cc2ccccc2)c1=O,inactive: 24.1%
24,COc1cc(/C=C2\SC(=O)N(CC(=O)Nc3ccccc3F)C2=O)cc(Cl)c1O,inactive: 0.294%
25,CCOC(=O)C(=O)C1=C(N2CCOCC2)/C(=C\c2ccc(F)cc2)CC1,inactive: 2.88%
26,Cc1ccccc1N1CCN(C2CCCN(C(=O)c3ocnc3C)C2)CC1 (stereo not given),inactive: 2.13%
27,O=C(NC(=S)NNS(=O)(=O)c1ccccc1)c1cccnc1,inactive: -27.6%
28,COc1ccc(C(=O)C2CCCN(Cc3cccn3-c3ccccn3)C2)c(OC)c1 (stereo not given),inactive: -0.553%
29,CC1C(=O)Nc2ccccc2N1C(=O)C1CC1 (stereo not given),inactive: 16%
30,O=C(N/N=C/C=C/c1ccccc1)c1ccccn1,inactive: 20.5%
